# The supplement of paper PMC8728848
# The list shows a part of the results.
# B1: NKR-PIC (Mus musculus) (protein)
# chain: GTGQKPSREKCCVFIQENLNKTTDCSVNLECPQDWLLHRDKCFHVSQVSNTWEEGQADCGRKGATLLLIQDQEELRFLLDSIKEKYNSFWIGLRFTLPDMNWKWINGTTFNSDVLKITGVTENGSCASILGDKVTPESCASDNRWICQKELNHETPSNDSGT
# How the values were obtained:
# Assay in all cases: glycan array binding signal (z-score within array); higher = stronger binding
# Details in all cases: glycan notation: IUPAC condensed, linker removed
# [1] = target: Neu5Ac(a2-6)Gal(b1-4)GlcNAc(b1-2)Man(a1-3)[Man(a1-6)]Man(b1-4)GlcNAc(b1-4)GlcNAc
# Procedure, shortened: (§1)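 Glycan array data were curated from 3228 arrays in the Consortium for Functional Glycomics database and kept only where the protein sequence was available. Glycan names were converted to IUPAC-condensed notation, and columns mapping to the same glycan were averaged. The binding signal is a within-array Z-score, averaged across arrays of the same protein sequence at different concentrations or buffers and across linkers. Negative Z-scores can be read as non-binding.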
# [2] = target: Neu5Ac(a2-6)Gal(b1-4)GlcNAc(b1-2)Man(a1-3)[Neu5Ac(a2-3)Gal(b1-4)GlcNAc(b1-2)Man(a1-6)]Man(b1-4)GlcNAc(b1-4)GlcNAc
# Procedure, shortened: as §1
# [3] = target: Neu5Ac(a2-6)Gal(b1-4)GlcNAc(b1-2)Man(a1-3)[Neu5Ac(a2-6)Gal(b1-4)GlcNAc(b1-2)Man(a1-6)]Man(b1-4)GlcNAc(b1-4)GlcNAc
# Procedure, shortened: as §1
# [4] = target: Neu5Ac(a2-6)Gal(b1-4)GlcNAc(b1-2)Man(a1-3)[Neu5Ac(a2-6)Gal(b1-4)GlcNAc(b1-2)Man(a1-6)]Man(b1-4)GlcNAc(b1-4)[Fuc(a1-6)]GlcNAc
# Procedure, shortened: as §1
# [5] = target: Neu5Ac(a2-6)Gal(b1-4)GlcNAc(b1-2)Man(a1-6)Man(b1-4)GlcNAc(b1-4)GlcNAc
# Procedure, shortened: as §1
# [6] = target: Neu5Ac(a2-6)Gal(b1-4)GlcNAc(b1-2)Man(a1-6)[Gal(b1-4)GlcNAc(b1-2)Man(a1-3)]Man(b1-4)GlcNAc(b1-4)GlcNAc
# Procedure, shortened: as §1
# [7] = target: Neu5Ac(a2-6)Gal(b1-4)GlcNAc(b1-2)Man(a1-6)[GlcNAc(b1-2)Man(a1-3)]Man(b1-4)GlcNAc(b1-4)GlcNAc
# Procedure, shortened: as §1
# [8] = target: Neu5Ac(a2-6)Gal(b1-4)GlcNAc(b1-2)Man(a1-6)[Man(a1-3)]Man(b1-4)GlcNAc(b1-4)GlcNAc
# Procedure, shortened: as §1
# [9] = target: Neu5Ac(a2-6)Gal(b1-4)GlcNAc(b1-2)[Neu5Ac(a2-6)Gal(b1-4)GlcNAc(b1-4)]Man(a1-3)[GlcNAc(b1-4)][Neu5Ac(a2-6)Gal(b1-4)GlcNAc(b1-2)[Neu5Ac(a2-6)Gal(b1-4)GlcNAc(b1-6)]Man(a1-6)]Man(b1-4)GlcNAc(b1-4)GlcNAc
# Procedure, shortened: as §1
# [10] = target: Neu5Ac(a2-6)Gal(b1-4)GlcNAc(b1-2)[Neu5Ac(a2-6)Gal(b1-4)GlcNAc(b1-4)]Man(a1-3)[GlcNAc(b1-4)][Neu5Ac(a2-6)Gal(b1-4)GlcNAc(b1-4)Man(a1-6)]Man(b1-4)GlcNAc(b1-4)GlcNAc
# Procedure, shortened: as §1
# [11] = target: Neu5Ac(a2-6)Gal(b1-4)GlcNAc(b1-2)[Neu5Ac(a2-6)Gal(b1-4)GlcNAc(b1-6)]Man(a1-6)[Neu5Ac(a2-6)Gal(b1-4)GlcNAc(b1-2)Man(a1-3)][GlcNAc(b1-4)]Man(b1-4)GlcNAc(b1-4)GlcNAc
# Procedure, shortened: as §1
# [12] = target: Neu5Ac(a2-6)Gal(b1-4)GlcNAc(b1-3)Gal(b1-3)GlcNAc
# Procedure, shortened: as §1
# [13] = target: Neu5Ac(a2-6)Gal(b1-4)GlcNAc(b1-3)Gal(b1-4)GlcNAc
# Procedure, shortened: as §1
# [14] = target: Neu5Ac(a2-6)Gal(b1-4)GlcNAc(b1-3)Gal(b1-4)GlcNAc(b1-2)Man(a1-3)[Neu5Ac(a2-6)Gal(b1-4)GlcNAc(b1-3)Gal(b1-4)GlcNAc(b1-2)Man(a1-6)]GalNAc
# Procedure, shortened: as §1
# [15] = target: Neu5Ac(a2-6)Gal(b1-4)GlcNAc(b1-3)Gal(b1-4)GlcNAc(b1-3)Gal(b1-4)GlcNAc
# Procedure, shortened: as §1
# [16] = target: Neu5Ac(a2-6)Gal(b1-4)GlcNAc(b1-3)Gal(b1-4)GlcNAc(b1-3)Gal(b1-4)GlcNAc(b1-2)Man(a1-3)[Neu5Ac(a2-6)Gal(b1-4)GlcNAc(b1-3)Gal(b1-4)GlcNAc(b1-3)Gal(b1-4)GlcNAc(b1-2)Man(a1-6)]GalNAc
# Procedure, shortened: as §1
# [17] = target: Neu5Ac(a2-6)Gal(b1-4)GlcNAc(b1-3)Gal(b1-4)GlcNAc(b1-3)GalNAc
# Procedure, shortened: as §1
# [18] = target: Neu5Ac(a2-6)Gal(b1-4)GlcNAc(b1-3)Gal(b1-4)GlcNAc(b1-3)[Neu5Ac(a2-6)Gal(b1-4)GlcNAc(b1-3)Gal(b1-4)GlcNAc(b1-6)]GalNAc
# Procedure, shortened: as §1
# [19] = target: Neu5Ac(a2-6)Gal(b1-4)GlcNAc(b1-3)Gal(b1-4)GlcNAc(b1-6)[Gal(b1-3)]GalNAc
# Procedure, shortened: as §1
# [20] = target: Neu5Ac(a2-6)Gal(b1-4)GlcNAc(b1-3)Gal(b1-4)[Fuc(a1-3)]GlcNAc(b1-3)Gal(b1-4)[Fuc(a1-3)]GlcNAc
# Procedure, shortened: as §1
# [21] = target: Neu5Ac(a2-6)Gal(b1-4)GlcNAc(b1-3)GalNAc
# Procedure, shortened: as §1
# [22] = target: Neu5Ac(a2-6)Gal(b1-4)GlcNAc(b1-3)[Neu5Ac(a2-6)Gal(b1-4)GlcNAc(b1-6)]GalNAc
# Procedure, shortened: as §1
# [23] = target: Neu5Ac(a2-6)Gal(b1-4)GlcNAc(b1-6)GalNAc
# Procedure, shortened: as §1
# [24] = target: Neu5Ac(a2-6)Gal(b1-4)GlcNAc(b1-6)[Gal(b1-3)GlcNAc(b1-3)]Gal(b1-4)Glc
# Procedure, shortened: as §1
# [25] = target: Neu5Ac(a2-6)Gal(b1-4)GlcNAc(b1-6)[Gal(b1-3)]GalNAc
# Procedure, shortened: as §1
# [26] = target: Neu5Ac(a2-6)Gal(b1-4)GlcNAc6S
# Procedure, shortened: as §1
# Neu5Ac(a2-6)GalNAc = target: Neu5Ac(a2-6)GalNAc
# Procedure, shortened: as §1
# [27] = target: Neu5Ac(a2-6)GalNAc(b1-4)GlcNAc
# Procedure, shortened: as §1
# [28] = target: Neu5Ac(a2-6)GalNAc(b1-4)GlcNAc6S
# Procedure, shortened: as §1
# [29] = target: Neu5Ac(a2-6)GlcNAc(b1-4)GlcNAc
# Procedure, shortened: as §1
# [30] = target: Neu5Ac(a2-6)GlcNAc(b1-4)GlcNAc(b1-4)GlcNAc
# Procedure, shortened: as §1
binder,measurement,setting,value
B1,glycan array binding signal (z-score),[1],-0.297
same,glycan array binding signal (z-score),[2],-0.375
same,glycan array binding signal (z-score),[3],-0.232
same,glycan array binding signal (z-score),[4],-0.329
same,glycan array binding signal (z-score),[5],-0.392
same,glycan array binding signal (z-score),[6],-0.356
same,glycan array binding signal (z-score),[7],-0.379
same,glycan array binding signal (z-score),[8],-0.238
same,glycan array binding signal (z-score),[9],-0.383
same,glycan array binding signal (z-score),[10],-0.342
same,glycan array binding signal (z-score),[11],-0.337
same,glycan array binding signal (z-score),[12],-0.29
same,glycan array binding signal (z-score),[13],-0.344
same,glycan array binding signal (z-score),[14],-0.298
same,glycan array binding signal (z-score),[15],-0.278
same,glycan array binding signal (z-score),[16],-0.183
same,glycan array binding signal (z-score),[17],-0.388
same,glycan array binding signal (z-score),[18],-0.332
same,glycan array binding signal (z-score),[19],-0.33
same,glycan array binding signal (z-score),[20],-0.263
same,glycan array binding signal (z-score),[21],-0.279
same,glycan array binding signal (z-score),[22],-0.395
same,glycan array binding signal (z-score),[23],-0.403
same,glycan array binding signal (z-score),[24],-0.321
same,glycan array binding signal (z-score),[25],-0.333
same,glycan array binding signal (z-score),[26],-0.309
same,glycan array binding signal (z-score),Neu5Ac(a2-6)GalNAc,-0.257
same,glycan array binding signal (z-score),[27],4.03
same,glycan array binding signal (z-score),[28],-0.201
same,glycan array binding signal (z-score),[29],2.23
same,glycan array binding signal (z-score),[30],5.02
